Measurements published in the supplement of paper PMC3334620.
Whole data set: some 33,000 sequences, median “E-score (-0.5 to 0.5)” near -0.017, cut for the highest 2% near 0.3. Some of the results follow.

target: T1, Sut1 (UniProt P53032); assay: PBM E-score (8-mer binding enrichment) (E-score (-0.5 to 0.5)); higher = stronger / more preferred TF binding; most listed sequences are background and not binding sites; conditions: protein concentration: 200 nM; construct: GST-full length
T1 sequence: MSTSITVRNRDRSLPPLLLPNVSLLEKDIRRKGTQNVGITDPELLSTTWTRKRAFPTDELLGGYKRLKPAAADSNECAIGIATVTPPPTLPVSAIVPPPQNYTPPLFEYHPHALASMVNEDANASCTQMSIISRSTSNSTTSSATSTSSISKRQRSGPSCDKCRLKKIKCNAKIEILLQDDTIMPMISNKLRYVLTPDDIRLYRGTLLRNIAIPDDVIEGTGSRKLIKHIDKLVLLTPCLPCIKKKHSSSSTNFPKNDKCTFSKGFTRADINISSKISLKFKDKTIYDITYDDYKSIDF
In short: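 Masliner-normalised scans of fluorescent anti-GST signal were the basis for scoring. That signal came from GST-tagged yeast transcription factors applied at about 100-200 nM to double-stranded universal all-10-mer Agilent arrays on fresh or once-stripped slides. Each ungapped eight-base word, pooled with its reverse complement, received an E-score from the Universal PBM Analysis Suite.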

Sequence	PBM E-score
AGAGATGG	-0.153
CCCCAGGG	-0.407
TAGAGAGA	-0.0117
GGATCACA	-0.0846
GAACGATA	0.0437
ACATGAGC	-0.11
AAGCCCGG	0.269
AGATACCC	0.0169
CGCTCATA	-0.104
GACGAATC	-0.0153
AGTAACAG	0.113
AAACCCTA	-0.07
CAGACCCC	-0.348
ACCTCTGG	-0.261
CTCGAAAA	0.0312
CAAAAACG	0.0494
CAACCAAG	-0.0636
CGGGGGCA	-0.399
CCTTAGTA	-0.129
CAACGACA	0.0513
CAGACCTA	-0.132
AACTCCGC	0.492
ATCATGCG	-0.0362
CGGAGCAC	0.175
CGCAAGGC	-0.0552

Sequence	PBM E-score
ATCCTACA	-0.0809
CGCGGGTC	-0.0488
ATTCAAAG	0.0234
ACGGGGAG	-0.117
CGTAACAG	0.0835
CACCGAAG	0.157
ATGATCCC	-0.096
TGGTTGAA	0.0452
GGCTAAAC	-0.0069
GATAAATA	0.325
GGATTATA	0.0232
GGGCGCAA	-0.0836
AACGTCAC	-0.0497
AAATTCAC	0.161
AGTTCGAG	-0.0528
AGGCCCCC	-0.315
AATCCCCG	0.239
ATCCGGGC	0.127
TAAGTCGA	0.13
GTTCGATA	0.159
AGAGAGTG	-0.0214
ACCTTGGA	-0.0763
AAAGGTCC	-0.112
ACGTGAGA	-0.208
GCTTTTTA	0.161

Sequence	PBM E-score
ACTTATGA	0.147
CTGGATAA	0.109
CTAGTGTC	-0.0625
AATTAATT	0.206
GTTCTCGA	-0.139
AGGACGTG	-0.264
AGTTCTAA	0.184
AGTGACTC	-0.0958
ACCACGCA	-0.327
CATACGCC	-0.0291
AGTAAGGC	-0.00012
CCGGAAGA	0.312
GAGTTGGC	-0.0198
CCCCAATA	-0.158
AACCGACG	-0.00778
AAACCATC	0.271
GGGCCAAA	-0.0244
CGTTGATA	0.189
ATTCAATC	0.193
GTTCCAGA	-0.0427
ACGACGCG	-0.0401
ACGTACAG	-0.16
GCAGCAGC	-0.307
AGGAGATG	0.0233
TAGACTAA	0.0585

Sequence	PBM E-score
GCACATCA	0.0466
CACTGTGG	-0.146
GAAGGTCC	0.144
ATGGTTCG	0.107
GGTCAATA	0.115
ACGTTACC	-0.0985
TGGGTTAA	-0.0031
CCAGGGAA	-0.379
GTGTCACA	0.00614
CGATGGGA	-0.101
ACACCTGG	-0.32
ATTTGCCA	-0.165
AGATAACT	0.136
TCTCACCA	0.0826
GCGGATCA	-0.0398
CATATGCC	0.00652
AAAATTTG	0.142
GGTGCGTA	-0.157
ATGGTGTA	-0.105
AGCGCTCC	-0.193
GGAGCACA	0.0392
CATCTTGC	-0.0807
ACCGCAAT	0.1
CCACAGCA	-0.141
CAAAAATC	0.125

Sequence	PBM E-score
ATGCTAAA	-0.0294
AGCGTAAA	0.0681
AACACGCG	0.0022
GTAACCGA	0.144
ATGAAGTG	0.0185
CTGAGAGA	-0.229
ATCAGTGC	-0.0601
CAGGAACG	-0.234
ATGTACGA	0.0933
AAGCTATC	0.142
AAAAGCGT	0.112
GCCATGAC	-0.172
GTAATTCA	0.182
ACCTCCAG	-0.0553
ACGGGTAG	-0.14
CGACAGGC	-0.216
ATGTTCCG	0.129
AACCGGAT	0.222
CCCGCACC	-0.153
ACAATTAG	0.0439
GATCATCC	0.00327
AGAGTTTA	0.27
CACGTCCG	-0.0345
AGTGACGA	0.0288
AGAGACAT	-0.0149

Sequence	PBM E-score
CGGACGGA	0.231
GGGGTTAA	0.129
GACACTGA	0.0506
CCTTGAAC	-0.0776
AAACTGGT	0.128
ACCAATCC	-0.0267
GTAGCACA	-0.00356
GAGTGTAC	0.0572
GGTAAGAC	-0.0931
CTCAAATA	0.0259
CTGATTTA	0.121
AGCTGGAT	-0.0844
CTTATACA	0.0738
ACAAGGCC	-0.275
ATCATGGG	-0.181
AGCGTACA	-0.175
AGAAGTTA	0.0971
CCCCCGAG	-0.343
AGGCCCGG	-0.106
ATTCAAGG	-0.108
AACTGAGA	-0.00112
GATGATAA	0.0829
CACAAGCA	-0.164
GGGCAACA	-0.116
ACCAGCGT	-0.199

Sequence	PBM E-score
CCCAATCG	-0.0649
ATACTAGG	-0.0332
AAAAGGTG	0.0819
AAGGGCCC	-0.29
ATCACGCG	0.155
CGCAACTC	0.0791
GCGAGTCA	-0.0157
TAGCACCA	-0.0675
AACAAAAA	0.235
AGGTTAGG	-0.0421
ACCCAGGT	-0.321
GAACGCAA	0.0304
ACGGAAAT	0.344
CTTGCGAA	0.129
ACTCGTTC	-0.0358
ATCGTCGG	0.0502
ACTGCGTC	0.0204
ATGCCGCC	-0.104
CTTGCATC	-0.216
CTAATAAC	0.14
AGTATAGG	0.167
AAAAGACC	-0.07
CATGCAAC	0.0373
CCAGCGAC	-0.244
ACTCTTTA	0.131

Sequence	PBM E-score
GTGCGTGA	-0.0457
AATGCGTA	0.14
AGCGACTA	-0.118
CTCGCGCC	-0.113
ACATCCTA	-0.00892
CAAGGCTA	0.0982
CCAAAAGA	0.119
GGGTATGA	-0.0075
GTTAGCAA	0.0451
CACCGACG	0.0397
AGGCGAGC	-0.207
CCCATAAG	-0.2
AATGGCTA	0.144
ACCCTAGG	-0.104
AGCCTCCT	-0.203
GGCGAACA	-0.155
CAACGCAA	0.111
GCTAACAC	0.00897
CGTCGTCC	-0.0848
CCCGGCGG	-0.171
ACATGGGG	-0.311
ATATCCAC	-0.0115
AAATGAGC	-0.096
AGGCGTAT	-0.0672
ATTCGGCG	-0.0582

Sequence	PBM E-score
CGTACCTC	-0.044
GAACAATC	0.0453
AAATCAGC	0.0573
GTTGAATA	0.203
AGTGATGC	-0.0998
CTTCGCCC	-0.13
CATGCAGG	-0.264
ACTAATTA	0.247
GCCGATCA	0.023
GATTCGAA	0.209
ACCGGGCT	0.037
AGATACAC	0.136
CATCACAC	0.00013
AGATTGCT	-0.054
CACCATCC	-0.216
ATAGACAC	-0.046
TGGACCAA	0.0191
AGTTCCTC	-0.0836
CCAACCGG	0.0398
ACTAGACG	-0.00534
CACAAATG	0.0358
CAACGGAA	0.25
GCGGACCC	0.101
GTACGGCA	0.0305
ATATGGGG	-0.248

Sequence	PBM E-score
AAGAAGTA	0.0747
AAGATACA	0.127
GGTCTGTA	-0.107
CAGTCCCC	-0.297
ATGGGGGC	-0.409
CACCAAGC	-0.171
AGAGAGCG	-0.0777
GTCACGGA	0.181
CAGATTGG	-0.188
ACCGGCAT	0.012
CCAGTGAC	-0.274
ATATGAAC	0.143
AAGGCGAA	0.00249
ACGTTTTC	0.143
AAGAATTC	0.178
GTCTGAAC	0.0811
AGGCAACC	-0.135
ATTAAAAA	0.243
GTCCGGCA	0.317
AAAGGCGC	-0.0925
TCAAGTCA	0.113
TCGTGAGA	0.00022
AACCAGGC	-0.0223
CTCGCACC	-0.09
CATGGCAC	-0.041

Sequence	PBM E-score
CGCGGGAC	-0.0931
CCACTCGA	-0.0621
AACATTGA	0.0205
CGTGAGAA	-0.00194
CGTGGGCA	-0.279
CGTATCGA	-0.152
CACTTCCG	-0.0144
GTGCGACA	-0.159
AGGAATGA	0.0636
ACGCAAGT	-0.0761
AGTTAGTC	0.216
CATGGTAA	-0.036
AATTGCGC	0.0566
CTTTCCAC	0.0876
ACGTATAC	0.0611
ACTTCCCG	0.0708
AGTTAGGA	0.0901
GGCTAGTA	0.0422
ACCCTCGT	-0.291
CTACCGAA	-0.0231
CTCCAAGA	-0.0109
CTGGAGTC	-0.0964
CGCCTAAC	0.0446
CAACAATA	0.181
ACCCCCCT	-0.392

Sequence	PBM E-score
AGGATTCA	-0.0848
TACTGTCA	-0.0755
ATACTCCG	0.487
TAACAGGA	0.0331
AACGAGTG	-0.00112
CACGCATC	-0.0275
CGAAATGC	-0.0217
GCCGATAC	-0.19
GCTAGTGA	-0.00823
AGTACCAC	-0.00996
ACCCTCAT	-0.22
CGGCGCAG	0.00289
CCGGTTAG	0.1
ATTTCGTA	0.0444
AACGTTCC	-0.0663
GGAGTTTA	0.396
CTTGAGAA	-0.0815
GCTGGGTA	-0.163
CCATTGAG	0.0176
ACTTATGG	-0.158
AACAGTAT	0.127
ATACCAAA	0.149
CCGATTTC	0.1
AACTTCTC	0.05
CCCCGCCC	0.116

Sequence	PBM E-score
ACAGATAG	-0.0172
ATGCACTC	-0.0896
TACTATGA	0.143
AGTCGGAC	0.337
GTTGGACA	-0.0794
ATAGAAAG	0.0197
ATTTATTG	0.16
ATACCGCG	-0.147
GAGCGCTC	-0.153
ACTTATAC	0.264
AACGGCAG	-0.0217
AAGTAAGT	0.123
GATCTCGC	-0.0977
CAATTCTC	0.0643
ATTGTGTC	0.112
GACCATCA	0.0723
CAAGTTGA	-0.00947
CTGCCGCC	-0.183
GTTGCCTA	-0.044
AAAGTTAA	0.291
ATCTGCCC	-0.0676
AAACTTAG	0.099
TCGATACA	0.181
TTCGCGAA	0.0656
CATAGATA	0.126

Sequence	PBM E-score
CGGAAAGC	0.275
AAGGTTCC	0.0977
ATCGCACC	-0.165
CCAAGTGA	-0.0738
GGCGTACC	-0.124
ATGGAAGC	0.0216
CAGACATC	-0.101
AATGCGGG	-0.0213
CCGATAAC	0.18
ACAGTGAT	-0.0348
ATTAGGAG	0.0863
GGCGGTAA	0.244
GTTTTGAA	0.151
CCCCTAAA	-0.127
CCTGATAA	0.095
CATGGAGA	-0.0668
CCAGGAGA	-0.0772
GGATCGCA	-0.193
TACTTTGA	0.0956
